Consider 31 compounds from US20130184251A1, “HETEROAROMATIC AND AROMATIC PIPERAZINYL AZETIDINYL AMIDES AS MONOACYLGLYCEROL LIPASE INHIBITORS” (Janssen Pharmaceutica, NV, priority 2009, published 2013).

In test [1] the target is T1, purified mutant MGL (mut-MGLL 11-313 L179S L186S) (Homo sapiens, UniProt Q99685, L169S/L176S).
T1 sequence (Q99685 1-303 L169S/L176S): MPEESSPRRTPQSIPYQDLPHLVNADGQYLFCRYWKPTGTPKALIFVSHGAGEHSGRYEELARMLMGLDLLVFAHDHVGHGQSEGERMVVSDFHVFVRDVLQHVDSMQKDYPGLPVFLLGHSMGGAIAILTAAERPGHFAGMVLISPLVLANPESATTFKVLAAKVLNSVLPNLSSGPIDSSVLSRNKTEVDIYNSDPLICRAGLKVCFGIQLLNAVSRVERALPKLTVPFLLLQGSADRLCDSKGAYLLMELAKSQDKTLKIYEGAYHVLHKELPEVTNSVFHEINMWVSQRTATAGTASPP
In words: biochemical. The conditions noted are these: Ex. 3 (mutant) IC50, mutant MGL (mut-MGLL 11-313 L179S L186S).

Test [2] concerns the target T1, purified mutant MGL (mut-MGLL 11-313 L179S L186S). In words: biochemical. The conditions noted are these: Ex. 4 Kd, ThermoFluor.

In general, IC50 refers to the concentration that inhibits the measured activity by half. One may read the Kd as the constant that tells how readily two partners part at equilibrium. A high value points to lower affinity. `N#Cc1cccnc1N1CCN(C2CN(C(=O)c3ccc(-c4ccccc4)cc3)C2)CC1` [compound 23, 2-(4-[1-(Biphenyl-4-ylcarbonyl)azetidin-3-yl]piperazin-1-yl}pyridine-3-carbonitrile] displayed an IC50 in test [1] of 27 nM. The compound further gave a Kd in test [2] of 36 nM.
Taken in the same sequence, the figures for `O=C(c1ccc(Cc2ccccc2)cc1)N1CC(N2CCN(c3ncccn3)CC2)C1` [compound 24, 2-(4-{1-[(4-Benzylphenyl)carbonyl]azetidin-3-yl}piperazin-1-yl)pyrimidine] were 30 nM and 42 nM.
In test [1], `O=C(c1ccc(-n2cccc2)cc1)N1CC(N2CCN(c3ncccn3)CC2)C1` [compound 25, 2-[4-(1-{[4-(1H-Pyrrol-1-yl)phenyl]carbonyl}azetidin-3-yl)piperazin-1-yl]pyrimidine] came in with an IC50 of 32 nM. The same compound came in with a dissociation constant Kd in test [2] of 59 nM.
Taken in the same sequence, the figures for `O=C(c1ccc(-c2ccccc2)c(F)c1)N1CC(N2CCN(c3ncccn3)CC2)C1` [compound 26, 2-(4-{1-[(2-Fluorobiphenyl-4-yl)carbonyl]azetidin-3-yl}piperazin-1-yl)pyrimidine] were 32 nM and 51 nM.
For `O=C(Nc1ccc(C(=O)N2CC(N3CCN(c4ccccn4)CC3)C2)cc1)C1CCCCC1` [compound 27, N-(4-{[3-(4-Pyridin-2-ylpiperazin-1-yl)azetidin-1-yl]carbonyl}phenyl)cyclohexanecarboxamide] the same measures were 34 nM and 55 nM.
Taken in the same sequence, the figures for `CN(C)c1ccc(C(=O)N2CC(N3CCN(c4ncccn4)CC3)C2)cc1` [compound 28, N,N-Dimethyl-4-{[3-(4-pyrimidin-2-ylpiperazin-1-yl)azetidin-1-yl]carbonyl}aniline] were 35 nM and 83 nM.
Consider `CC1(C)CCC(C)(C)c2cc(CCC(=O)N3CC(N4CCN(c5ccccn5)CC4)C3)ccc21` [compound 29, 1-Pyridin-2-yl-4-{1-[3-(5,5,8,8-tetramethyl-5,6,7,8-tetrahydronaphth-2-yl)propanoyl]azetidin-3-yl}piperazine], for which, in test [1], the IC50 came out at 37 nM. Also, in test [2], the Kd turned out to be 229 nM.
Taken in the same sequence, the figures for `O=C(c1ccc(Cc2ccccc2)cc1)N1CC(N2CCN(c3ccccn3)CC2)C1` [compound 30, 1-{1-[(4-Benzylphenyl)carbonyl]azetidin-3-yl}-4-pyridin-2-ylpiperazine] were 40 nM and 333 nM.
Taken in the same sequence, the figures for `CCCn1ccc2cc(C(=O)N3CC(N4CCN(c5ccccn5)CC4)C3)ccc21` [compound 31, 1-Propyl-5-{[3-(4-pyridin-2-ylpiperazin-1-yl)azetidin-1-yl]carbonyl}-1H-indole] were 48 nM and 42 nM.
Taken in the same sequence, the figures for `O=C(c1ccc(C2CCCCC2)cc1)N1CC(N2CCN(c3ncncn3)CC2)C1` [compound 32, 2-(4-{1-[(4-Cyclohexylphenyl)carbonyl]azetidin-3-yl}piperazin-1-yl)-1,3,5-triazine] were 51 nM and 29 nM.
In test [1], `O=C(c1ccc(C2CCCCC2)cc1)N1CC(N2CCN(c3noc4ccccc34)CC2)C1` [compound 33, 3-(4-{1-[(4-Cyclohexylphenyl)carbonyl]azetidin-3-yl}piperazin-1-yl)-1,2-benzisoxazole] returned an IC50 of 55 nM. For the same compound, the equilibrium dissociation constant (Kd) in test [2] came to 27 nM.
With `O=C(c1ccc(C2CCCCC2)cc1)N1CC(N2CCN(c3nnc(C(F)(F)F)s3)CC2)C1` [compound 34, 1-{1-[(4-Cyclohexylphenyl)carbonyl]azetidin-3-yl}-4-[5-(trifluoromethyl)-1,3,4-thiadiazol-2-yl]piperazine], in test [1], the IC50 amounted to 55 nM. In test [2], this compound showed a Kd of 84 nM.
`CCCCc1ccc(C(=O)N2CC(N3CCN(c4ccccn4)CC3)C2)cc1` [compound 35, 1-{1-[(4-Butylphenyl)carbonyl]azetidin-3-yl}-4-pyridin-2-ylpiperazine] had an IC50 in test [1] of 55 nM. The compound also had a Kd in test [2] of 373 nM.
Taken in the same sequence, the figures for `O=C(c1ccc(-c2ccccc2)cc1)N1CC(N2CCN(c3nccs3)CC2)C1` [compound 36, 1-[1-(Biphenyl-4-ylcarbonyl)azetidin-3-yl]-4-(1,3-thiazol-2-yl)piperazine] were 56 nM and 31 nM.
For `CCN(CC)c1ccc(C(=O)N2CC(N3CCN(c4ccccn4)CC3)C2)cc1` [compound 37, N,N-Diethyl-4-{[3-(4-pyridin-2-ylpiperazin-1-yl)azetidin-1-yl]carbonyl}aniline] the same measures were 62 nM and 44 nM.
For `COc1ccc(C(=O)N2CC(N3CCN(c4ncccn4)CC3)C2)cc1I` [compound 38, 2-(4-{1-[(3-Iodo-4-methoxyphenyl)carbonyl]azetidin-3-yl}piperazin-1-yl)pyrimidine] the same measures were 63 nM and 192 nM.
Consider `Cc1c(C(=O)N2CC(N3CCN(c4ccccn4)CC3)C2)nn(-c2ccc(Cl)cc2Cl)c1-c1ccc(Cl)cc1` [compound 39, 1-(1-{[5-(4-Chlorophenyl)-1-(2,4-dichlorophenyl)-4-methyl-1H-pyrazol-3-yl]carbonyl}azetidin-3-yl)-4-pyridin-2-ylpiperazine], for which, in test [1], the IC50 amounted to 75 nM. In addition, the Kd in test [2] amounted to 182 nM.
For `CN(CC1CCCCC1)c1ccc(CCC(=O)N2CC(N3CCN(c4ccccn4)CC3)C2)cc1` [compound 40, N-(Cyclohexylmethyl)-N-methyl-4-{3-oxo-3-[3-(4-pyridin-2-ylpiperazin-1-yl)azetidin-1-yl]propyl}aniline] the same measures were 78 nM and 451 nM.
For `O=C(/C=C/c1ccc(SC(F)(F)F)cc1)N1CC(N2CCN(c3ccccn3)CC2)C1` [compound 41, 1-Pyridin-2-yl-4-{1-[(2E)-3-(4-[(trifluoromethyl)sulfanyl]phenyl}prop-2-enoyl]azetidin-3-yl}piperazine] the same measures were 84 nM and 395 nM.
For `O=C(c1ccc(-c2ccccc2)cc1)N1CC(N2CCN(c3ccccn3)CC2)C1` [compound 42, 1-[1-(Biphenyl-4-ylcarbonyl)azetidin-3-yl]-4-pyridin-2-ylpiperazine] the same measures were 104 nM and 118 nM.
`O=C(c1ccc(Cl)c(I)c1)N1CC(N2CCN(c3ncccn3)CC2)C1` [compound 43, 2-(4-{1-[(4-Chloro-3-iodophenyl)carbonyl]azetidin-3-yl}piperazin-1-yl)pyrimidine]: the IC50 in test [1] came out at 104 nM. The same compound yielded a Kd in test [2] of 400 nM.
Taken in the same sequence, the figures for `CCC(C)(C)c1ccc(C(=O)N2CC(N3CCN(c4ccccn4)CC3)C2)cc1` [compound 44, 1-(1-{[4-(1,1-Dimethylpropyl)phenyl]carbonyl}azetidin-3-yl)-4-pyridin-2-ylpiperazine] were 127 nM and 556 nM.
In test [1], `O=C(c1ccc(Oc2ccccc2)cc1)N1CC(N2CCN(c3ccccn3)CC2)C1` [compound 45, 1-{1-[(4-Phenoxyphenyl)carbonyl]azetidin-3-yl}-4-pyridin-2-ylpiperazine] came in with a half-inhibitory concentration (IC50) of 140 nM. Moreover, the Kd in test [2] was 244 nM.
For `O=C(c1ccc(-n2cccn2)cc1)N1CC(N2CCN(c3ncccn3)CC2)C1` [compound 46, 2-[4-(1-{[4-(1H-Pyrazol-1-yl)phenyl]carbonyl}azetidin-3-yl)piperazin-1-yl]pyrimidine] the same measures were 152 nM and 454 nM.
For `O=C(c1cccc(Oc2ccccc2)c1)N1CC(N2CCN(c3ccccn3)CC2)C1` [compound 47, 1-{1-[(3-Phenoxyphenyl)carbonyl]azetidin-3-yl}-4-pyridin-2-ylpiperazine] the same measures were 160 nM and 1020 nM.
For `Cc1ccc(C(=O)N2CC(N3CCN(c4ncccn4)CC3)C2)cc1I` [compound 48, 2-(4-{1-[(3-Iodo-4-methylphenyl)carbonyl]azetidin-3-yl}piperazin-1-yl)pyrimidine] the same measures were 162 nM and 435 nM.
Compound `O=C(c1ccc2[nH]c(-c3ccccc3)nc2c1)N1CC(N2CCN(c3ccccn3)CC2)C1` [compound 49, 2-Phenyl-5-{[3-(4-pyridin-2-ylpiperazin-1-yl)azetidin-1-yl]carbonyl}-1H-benzimidazole] registered a half-inhibitory concentration (IC50) in test [1] of 169 nM. The compound further showed a Kd in test [2] of 704 nM.
As for `Cc1cc(C(=O)N2CC(N3CCN(c4ncccn4)CC3)C2)ccc1I` [compound 50, 2-(4-{1-[(4-Iodo-3-methylphenyl)carbonyl]azetidin-3-yl}piperazin-1-yl)pyrimidine], in test [1], the half-inhibitory concentration (IC50) came out at 179 nM. Also, the dissociation constant (Kd) in test [2] came out at 284 nM.
For `O=C(CCc1ccc(I)cc1)N1CC(N2CCN(c3ncccn3)CC2)C1` [compound 51, 2-(4-{1-[3-(4-Iodophenyl)propanoyl]azetidin-3-yl}piperazin-1-yl)pyrimidine] the same measures were 196 nM and 417 nM.
For `O=C(c1cccc(-c2ccc(F)cc2)c1)N1CC(N2CCN(c3ccccn3)CC2)C1` [compound 52, 1-{1-[(4′-Fluorobiphenyl-3-yl)carbonyl]azetidin-3-yl}-4-pyridin-2-ylpiperazine] the same measures were 200 nM and 1900 nM.
For `O=C(c1ccc(I)cc1)N1CC(N2CCN(c3ncccn3)CC2)C1` [compound 53, 2-(4-{1-[(4-Iodophenyl)carbonyl]azetidin-3-yl}piperazin-1-yl)pyrimidine] the same measures were 239 nM and 333 nM.
